Test results: the supplement of paper PMC5499739
In all, about 16,000 sequences were measured (“Z-score”: median about -0.37, highest 2% from about 3.1 on). Some of the results follow.

System: RBM10 RRM1-ZnF-RRM2 (GST-tagged construct)
Assay: RNAcompete 7-mer binding Z-score; higher = stronger binding preference
Procedure: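 RNAcompete: 20 pmol GST-tagged RBM10 RNA-binding constructs were incubated with a designed RNA pool of about 241,000 sequences up to 41 nt (1.5 nmol) on glutathione beads for 30 min at 4 °C and washed. Bound RNAs were identified by microarray hybridisation. Each RNA 7-mer is scored by a one-sided Z-score of its enrichment, computed over probes that contain the 7-mer within longer pool sequences.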

Sequence	RNAcompete 7-mer binding Z-score
CAUUUCG	-0.85
CGCGCUG	-0.333
CGAGCGG	3.33
GGGUCGA	2.01
ACAUUCG	-0.541
UCAUUGA	-0.162
GAUGCGG	1.7
UAUAGAA	-0.027
AUCAAAG	-0.0452
UACGCGC	-0.446
GAACAAC	-0.18
CCUAGAU	-0.752
UGGGGGA	3.33
CUGCGAU	-0.923
GGUACAC	0.836
ACCUAAU	-0.879
ACGUGCG	0.177
GCUUCGC	-0.664
UCCAAUC	-0.617
UACUACC	-0.861
AAUGGGC	2.92
UCAUUUG	-0.785
GUUGGCC	-0.00148

Sequence	RNAcompete 7-mer binding Z-score
GCCCCUC	-0.504
CCAGAAG	-0.0707
UCUGGAA	-0.358
CGGACUC	-0.446
AGAACCA	-0.708
GAACUAA	-0.267
GUUUGGG	3.06
CCCCAGA	-0.53
GAAUUGU	-0.0707
AGGGAUC	1.32
GCUUGUG	-0.479
AGCCCGG	-0.435
CUCCGAA	-0.755
GGUCUAC	-0.00148
CGCCUGA	-0.795
AUGUUAG	0.192
CAUGGGA	2.16
CGGUAAG	1.52
GUUGGCG	1.37
ACUCUCU	-0.803
GUAAGUA	0.497
GUCUCCC	-0.442
CGCCUUA	-0.97

Sequence	RNAcompete 7-mer binding Z-score
CUGAGCA	-0.337
GUCGACA	-0.0998
UCCCAUA	-0.77
AAUUGUG	-0.00512
AGCCAGA	-0.216
CUAAUAG	-0.329
AGUAUGA	-0.0598
UUGUCAC	-0.697
AUUGCCC	-0.945
UAAUGCC	-0.723
AUUUCUG	-0.65
CCGUGUA	-0.0816
UAAAGAA	-0.111
UCCCAAA	-0.781
CAUCUUC	-1.04
AAUCUGG	-0.129
CACUGAC	-0.548
CCCGGUU	-0.42
ACCUCGA	-0.668
GCUGAAC	-0.417
GUCUGGU	-0.0525
CGUGGUG	1.44
GUUGUGU	-0.0415

Sequence	RNAcompete 7-mer binding Z-score
GAGCACC	-0.322
UCAGAAU	-0.388
AGACCGG	-0.366
CUGUAGC	-0.621
AGACUAU	-0.704
ACUGCCG	-0.766
GACCUCG	-0.737
UCCCCCC	-0.296
GAGCUCG	-0.289
GUAAAUC	-0.282
UAUACGA	-0.227
AUGCUAU	-0.65
UGUGCGC	-0.369
GAGCUCC	-0.657
ACGUGUU	-0.49
CAAUGCU	-0.442
AAAUCAG	0.0641
GAUAGGU	2.87
GAUACCC	-0.511
UGAAAGC	-0.122
AUCCGCG	-0.613
GAUACCA	-0.231
AAAUAGG	1.24

Sequence	RNAcompete 7-mer binding Z-score
CAUAGGC	0.0641
UUGGUAU	0.323
GGUAUGC	1.2
AAAUACA	-0.0197
AAAUACU	-0.592
ACCGAGU	-0.508
GACAACG	0.275
ACUGUGC	-0.602
GUUAGUG	0.953
CUCGGAU	-0.395
GCAAGAA	0.45
GUCCGCC	-0.766
CUCAGCU	-0.814
UGAGAUC	-0.347
GGACGAG	2.39
GCCCGCA	-0.741
CGCACAU	-0.621
UUAUUAU	-0.486
UUGACUU	-0.832
AGACUGU	-0.788
GACUUCU	-0.992
GGUGUCU	0.159
CUAGACC	-0.876

Sequence	RNAcompete 7-mer binding Z-score
ACUCAAG	-0.377
GUCCAUU	-0.741
CUCCCCC	-0.526
UACUCCA	-0.668
CCGUAAG	-0.595
CUACGGU	-0.209
ACACAGC	-0.442
ACAUCAC	-0.708
CCUGCGC	-0.883
CAUGAGU	-0.00512
AUCUCCA	-0.792
AGUUCAC	-0.657
AUGACGA	0.312
CUGUUCC	-0.948
GAGCGUC	-0.344
UGGGUGA	3.5
UCUAAUA	-0.599
GGUCCUC	-0.417
CCAACGC	-0.504
AAGAGCG	0.691
AAGGGCC	1.53
GUGUCAU	-0.34
GGUAAGU	1.71

Sequence	RNAcompete 7-mer binding Z-score
CGGGCCU	-0.351
CAUUAGC	-0.65
UUACAGU	-0.0343
GCUUUGA	-0.719
GGCAUUU	-0.293
ACAUAUC	-0.526
ACCACAG	-0.18
AGGUCUC	-0.468
UUGUAUU	-0.632
GGGGAAG	3.91
GGUAUUA	1.07
ACUUCGU	-0.715
UGCCUCG	-0.704
GAUUAAC	-0.286
GAGCCGA	-0.53
ACCUUGU	-0.93
CCUUCUU	-0.806
AGAACAU	-0.398
CGCGGCG	1.09
GAUGCUC	-0.694
GCAUUUG	-0.446
CGUAAGU	-0.162
GCACGGU	0.519

Sequence	RNAcompete 7-mer binding Z-score
AGAAAGA	0.519
UAGCCUU	-0.755
UCGCUGU	-0.785
UUGGUGC	0.982
GCGUGGG	3.66
CAGGGUA	2.88
GGACAUG	1.94
GUACGCA	-0.158
GUCUAAU	-0.388
CAGACGC	-0.475
UGUCUUA	-0.81
AUCCCUG	-0.825
CCCCCAA	-0.653
AGCGUAA	0.21
ACUUCCG	-0.763
CUAAACG	-0.479
CUACUCG	-0.697
CGAAGAA	0.0641
CUGUUUG	-0.606
GCAUCGA	-0.22
CAAAUUA	-0.704
GCUUAUU	-0.861
